# Measured values from ChEMBL document CHEMBL4888484, “Replenishing the malaria drug discovery pipeline: Screening and hit evaluation of the MMV Hit Generation Library 1 (HGL1) against asexual blood stage Plasmodium falciparum ,using a nano luciferase reporter read-out” (2022).
# Among all 150,000 compounds or so, about 540 (0.36%) showed an effect of 50% or more. This is one part of the list.
# Test system: Plasmodium falciparum
# Assay: Primary screen in NF54 nanoGlo assay, in single point, at 2uM, 72h; a lower Z score goes with more inhibition
# Type: functional, Erythrocyte
# Conditions: timepoint 72 hour
Compound,% Inhibition,Z score
O[C@H]1CCCN(Cc2cnn(CC(F)F)c2)c2ccccc21,0%,0.02
COCc1ccsc1C(=O)NS(=O)(=O)N1CCc2ccccc2C1,2%,-0.26
CC1CCCCN1c1nc2nonc2nc1N1CCCCC1C (stereo unspecified),-1%,0.13
Cc1cc(O)ccc1NC(=O)CCc1cscn1,-11%,1.94
O=C(c1cccc(OC2CN(C3CCCCCC3)C2)c1)N1CCCC1,-4%,0.48
Cc1c(NC(=O)N2CCCC2)cccc1C(=O)N1CCOCC1,2%,-0.27
COc1ccccc1O[C@@H](C)C(=O)N1CCN(c2ccc(C)cc2)C(=O)C1,-8%,1.24
OCC1(N(Cc2ccccc2)Cc2cn3cccnc3n2)CCCC1,-4%,0.66
O[C@H]1CCCN(c2ncc(F)c(N3CCOCC3)n2)CC1,-1%,0.19
COCC(=O)N(CCCN1CCCC1)[C@H]1CCCN(C(=O)c2cccc(C)c2)C1,-1%,0.1
CC(C)(C)c1cnc(CN[C@H]2CCc3ncnn3C2)o1,-16%,1.85
COc1ccc(C(C)=O)cc1COc1ccccc1C(=O)NCc1ccccc1,-18%,2.37
Cc1c(Cl)cccc1NC(=O)CCCC(=O)c1ccccc1,-7%,1.18
COc1ccc(C(NC2CCNC2=O)c2ccccc2Cl)cc1 (stereo unspecified),-8%,0.85
Cn1cc(NC(=O)N[C@H](c2ccccc2)C2CC2)ccc1=O,-6%,0.88
c1cn([C@H]2CCCN(Cc3nnc(C4CC4)s3)C2)nn1,-5%,1
Cc1ccc(NS(=O)(=O)c2cc(-c3nc(-c4ccc(Cl)cc4)no3)cs2)c(C)c1,-11%,1.26
OC[C@H]1CCCN1c1ncnc2ccc(F)cc12,-4%,0.44
CN1CCN(c2cc(Nc3ccccc3)ncn2)CC1,-16%,1.97
CNc1ncccc1C(=O)N[C@@H]1CCOC[C@@H]1Oc1ccc(C)nc1,2%,-0.33
COC[C@H](C)N(Cc1cccc2ccccc12)C(=O)Cn1nnnc1N,-17%,2.22
COc1cccc(OC)c1C(=O)Nc1ccc(-n2ccnc2C(C)C)cc1,10%,-1.34

Compound,% Inhibition,Z score
Cc1cc(CN(C)C(=O)c2csc(-c3ccco3)n2)no1,-6%,0.75
Cc1cnccc1NCCNCc1nc(C(C)C)cs1,6%,-0.58
Cc1cccc(CN2CCC(N(c3ccc(F)cc3)S(=O)(=O)c3cccc(C)c3)CC2)c1,-4%,0.34
COc1ccc(CNC(=O)[C@H]2Nc3cc(F)ccc3S(=O)(=O)N2)cc1,-12%,2.25
COc1cccc(CO[C@H]2CCCN(C(=O)CC(C)C)C2)c1,-9%,1.09
CN(Cc1nccs1)C1CCC(CO)CC1 (stereo unspecified),-13%,1.7
CCOC(=O)N1CCC(NC(=O)c2c[nH]c3cc(Cl)ccc23)CC1,-5%,0.99
COc1cc(C)nc(N2CCC(O)(c3ccnn3C)CC2)n1,1%,-0.14
O=C(O)Cn1nc(C2CCCC2)nc1CCCc1cn[nH]c1,-2%,0.38
CCCCNC(=O)CN(C)C(=O)c1cnc(NCC)nc1,10%,-1.88
O=C(Nc1cn[nH]c1)[C@@H]1CCCN1c1ncnc2sccc12,-7%,1.37
O=C(Nc1ccccc1NCC(=O)N1CCNC1=O)c1cccs1,1%,-0.25
O=c1[nH]c2ccccc2c(-c2ccccc2)c1-c1cc(-c2ccccc2)c2cc(Cl)ccc2n1,-1%,0.19
O=C(NCCc1cn2c(n1)CCCC2)NCC[C@H](O)c1ccccc1,-8%,1.52
C[C@H]1Cc2ccc(CNC(=O)C3CCC3)cc2N1C(=O)c1ccccc1,11%,-1.31
CC(Nc1ccnc(Cc2ccccc2)n1)C1CCOC1 (stereo unspecified),-4%,0.38
CCOCc1nc(CCS(=O)(=O)c2ccc(C)cc2)no1,-16%,1.59
CCc1cnc(N)nc1N[C@H]1CC(=O)N(c2ccc(F)cc2)C1,4%,-0.59
O=C(C(=O)N1CCN(Cc2ccncc2)[C@@H]2CS(=O)(=O)C[C@@H]21)c1ccco1,-1%,0.11
CCN1CCC[C@@H]1CN(C)C(=O)c1ncoc1-c1ccc2c(c1)OCCO2,-3%,0.44
COC(=O)[C@@H]1CCCN1C(=O)c1c(CC2CCCC2)n(Cc2cccnc2)c(C)cc1=O,19%,-2.47
